Experimental findings from the RNAGym collection of RNA variant scans (doi:10.7554/elife.90254) are described below.

First the molecules themselves.
B1: OR4K15 (parent)
chain: GUUAACGGUCAUAGGCCAUGGAAACUAGGAGCACCAUUUCGCUGCCAGUGAAGAAAUGAACAAAGAAAAUCUGGGCCAGGCAGGCAUCAAAAGAAAUAGUCUUGCGCUCAACCAGAAAGUCUGUAAUCAUUUUAAGGGUA

The source gives no read counts; variants with many changes may rest on few reads.

The data set covers variants of B1. Kind of data set: self-cleavage, relative activity (ratio to wild type); higher = more cleavage; in vitro, sequencing; the parent is a self-cleaving ribozyme.
As for U9A A78U A111U, the self-cleavage is 0.03.

With U9A A47G A63G A67G U97A, the self-cleavage worked out at 0.74.

For A5U A126G U131G, the self-cleavage is 0.53.

Turning to G7U A68G U72A, the self-cleavage amounted to 0.5.

As to G7U U9C A51U A78G A98G U122A, the self-cleavage came out at 0.06.

G8A A116G U122A: the self-cleavage was 0.97.

Take A5U A18G A94G: the self-cleavage came to 0.9.

Consider U9A U19A A54U A111G, for which the self-cleavage was determined as 0.03.

Regarding G7U A11G A22G U108C, the self-cleavage worked out at 0.04.

In the case of A5G G20A A23G U49A A55G A64G G75A U108C A111G, the self-cleavage turned out to be 0.03.

Regarding C6U A51G A55G A114G A118U, the self-cleavage worked out at 0.04.

For G7A U72C G104C A114U A118G, the self-cleavage amounted to 0.01.

U9A A60G A89G: the self-cleavage was 1.27.

For the variant A5G G74U C77U, the self-cleavage was determined as 0.24.

Take G7A A24G A69G A111U U131A: the self-cleavage worked out at 0.07.

With G7A A13G A63G, the self-cleavage was determined as 1.13.

For the variant U9A A54G A91G, the self-cleavage is 1.24.

Consider A5G U49G A66G U72C U120C, for which the self-cleavage stood at 0.11.

With U9A A23G C34A A67U A69G U87C, the self-cleavage turned out to be 0.7.

Turning to G8A U19C U39C A54G U122C U133C, the self-cleavage worked out at 1.08.

In the case of A5G U19C A52G, the self-cleavage stood at 0.98.

As for G7U A23G A30G A82U G123U, the self-cleavage was 0.42.

Turning to U9A A78C A94G, the self-cleavage stood at 0.3.

For the variant G7U A67G A86G, the self-cleavage stood at 0.31.

In the case of U9A A24G A33G, the self-cleavage turned out to be 1.24.

For the variant A5G U49C U108C, the self-cleavage was 0.

As for U9A A23U A27G A90G A111U, the self-cleavage is 0.08.

Consider A5G U39C A47G A56G A78G, for which the self-cleavage turned out to be 0.21.

A5U A36G A64G: the self-cleavage amounted to 1.05.

Consider U9A U43C A51G, for which the self-cleavage turned out to be 1.09.

Consider G8A U39C A47G A98U, for which the self-cleavage came out at 1.43.

U9A A60G A67U A68G: the self-cleavage was found to be 0.87.

As for A5U A51U U57C U87C, the self-cleavage was 0.89.

Regarding U9A A67G U100A, the self-cleavage amounted to 0.75.

As for A5G U12C U70A G84A U87A A91G, the self-cleavage was 1.16.

With U9A U43C U87C U100C, the self-cleavage worked out at 2.4.

In the case of G7C A86G U122C, the self-cleavage is 0.68.

For the variant U9A U124C U131G, the self-cleavage amounted to 0.18.

For the variant G8A A64G A129G U132C, the self-cleavage was 1.24.

Regarding U9C A18U A60G U133C, the self-cleavage is 0.78.

On to U9A A30G A67U U97C, for which the self-cleavage came to 1.05.

Turning to U9C A22G A59G A78U A117G, the self-cleavage was found to be 0.23.

Turning to A5G U43C A89U A116G A129G, the self-cleavage was 0.74.

With C6A A64C A92G A114U, the self-cleavage came to 0.01.

A5G U49A A55G A92G U122C G123U: the self-cleavage is 0.82.

On to G7A A11U A23G A89G U108C A118G, for which the self-cleavage came out at 0.01.

In the case of C6U A23G G53U C77U, the self-cleavage was 0.99.

As to A5G U72A A82G, the self-cleavage is 0.11.

As for A5U A36U A68C, the self-cleavage was 1.29.

Regarding U9A C105U A114U, the self-cleavage is 0.04.

Consider C6U U38A U122C, for which the self-cleavage is 0.66.

Take A5G U38C A62G: the self-cleavage came out at 0.77.

Turning to G8U U43C A52G A66G, the self-cleavage stood at 1.72.

With U9A A60G A66G A92G, the self-cleavage came to 0.57.

For the variant C6U U70C U102A C112G, the self-cleavage was 0.03.

On to A5U A82G A92G, for which the self-cleavage stood at 0.55.

Turning to A5G U12C A63G A78U A82G, the self-cleavage came out at 0.17.

For U9C A11G U19C A36G A52G U102C U108C U120C, the self-cleavage stood at 0.02.

Turning to U9C A18G A125U U127A A140G, the self-cleavage came to 2.5.

In the case of U9A G29U A51G A59G A82G A96G A98G A110G, the self-cleavage worked out at 0.

For G7A U57C A94U, the self-cleavage stood at 1.63.

In the case of A5G G20U U120A U130C, the self-cleavage worked out at 1.62.

With C6A A22G A36C, the self-cleavage was 1.03.

Regarding G8A U19A A78U A117G U122C, the self-cleavage was determined as 0.13.

Consider A5G G15A U70C U131C, for which the self-cleavage is 0.12.

For A5G U43G A51G, the self-cleavage was determined as 1.07.

For U9A A59G A66G C85U A114G, the self-cleavage was determined as 0.18.

As for G7U U9C A78U U133C, the self-cleavage was determined as 0.57.

With U9A A24G A33C A95G, the self-cleavage was 0.87.

As for A5G U49C U100C A134C, the self-cleavage stood at 1.18.

As for C6U A22U U37C U39C, the self-cleavage turned out to be 0.85.

G8A U124C U133C: the self-cleavage was 0.04.

As to A5G U19C A33G G106C, the self-cleavage came out at 0.04.

For A5G U37C U122C, the self-cleavage came to 1.32.

As for G7A A51G A63G U87A, the self-cleavage turned out to be 1.75.

As for G7A A54G A67G C109A, the self-cleavage amounted to 0.31.

With U9A A64G U103C, the self-cleavage came out at 0.03.

In the case of G8A A27U A63U A118G U120C U131C, the self-cleavage was determined as 0.21.

As for A5U A69G U122C, the self-cleavage is 1.34.

As to U9A A59G U72C A94U U127C U132C, the self-cleavage is 0.05.

In the case of C6U A47G A78G A94G, the self-cleavage is 0.37.

Regarding C6A A59G U122A, the self-cleavage was found to be 0.2.

Take C6A U37C U39C A118G: the self-cleavage was found to be 0.8.

For the variant A5G U9C A64G G137A, the self-cleavage worked out at 1.18.
